About 340 (0.77%) of roughly 44,000 compounds were called active. Roughly 5% stayed inconclusive and do not appear here. Calls come from the whole dose curve; as a rule, active = well fitted inhibition curve with a large enough effect; inconclusive = small, poorly fitted or top-dose-only effect; inactive = flat fitted curve, though single readings scatter. The list shows a part of the results.
Potency is the fitted concentration of half-maximal effect.

The nature of this assay: Acumen qHTS Assay for Inhibitors of the mTORC1 Signaling Pathway in MEF (Tsc2-/-, p53-/-) Cells: Sytravon.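 For activity change, negative = inhibition: plate controls were DMSO for no effect and rapamycin for full effect.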 Note: nearly all actives have a fitted effect of over 50% in size. Conditions: phospho-rpS6 immunofluorescence/PI, 24 h; series mostly up to 38.3 µM; activity change, negative = inhibition: at the top concentration. The procedure, abridged: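 Immunofluorescence of rpS6 phosphorylation in Tsc2-/-, p53-/- MEFs after 24 h compound exposure, normalized to propidium iodide signal. Activity is expressed as % positive cells, thresholded with 7.5 nM rapamycin.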
In the case of `CC1CCC(NC(=O)CCc2cn(Cc3ccc(F)cc3)c3ccccc23)CC1` (stereo not given), the “activity change, negative = inhibition” value is inactive: 2.79%.

In the case of `COc1ccc(NC(=O)c2nc(S(=O)(=O)Cc3ccc(C)cc3)ncc2Cl)cc1`, the Potency is active: 3.69 µM.

Consider `Cc1ccccc1C(=O)NCc1ccc2c(c1)CCN2C(=O)c1ccc(F)cc1`, for which the “activity change, negative = inhibition” value was inactive: -0.333%.

For the molecule `Cc1nn2c(=O)cc(COC(=O)COc3ccccc3C)nc2s1`, the “activity change, negative = inhibition” value is inactive: 0.463%.

On to `CCOc1ccc(C(=O)c2cn(CC(=O)Nc3ccc(C)c(C)c3)c3ccc(OCC)cc3c2=O)cc1`, for which the “activity change, negative = inhibition” value is inactive: -4.13%.

For the molecule `COc1ccccc1NC(=O)C1CCN(c2ncnc3c2nc2n3CCCCC2)CC1`, the “activity change, negative = inhibition” value was inactive: 0.479%.

For the molecule `COc1cc2c(cc1OC)C(COc1ccc(C(C)C)cc1)N(C(=O)COc1ccccc1)CC2` (stereo not given), the “activity change, negative = inhibition” value was inactive: 14.3%.

For the molecule `COc1ccc(N2CC(NC(=O)c3ccc(S(=O)(=O)N4CCOCC4)cc3)CC2=O)cc1` (stereo not given), the “activity change, negative = inhibition” value was inactive: 0.558%.

Consider `CCOC(=O)CSc1ncnc2c1c(-c1ccccc1)cn2-c1ccc(OC)cc1`, for which the “activity change, negative = inhibition” value is inactive: -4.77%.

Take `CCS(=O)(=O)c1nc(S(=O)(=O)c2ccc(C)cc2)c(NCc2ccccc2Cl)s1`: the “activity change, negative = inhibition” value is inactive: -8.01%.

Regarding `COc1ccc(OCC(=O)N2CCN(C(=O)c3ccc(OC)cc3)CC2)cc1`, the “activity change, negative = inhibition” value is inactive: -1.8%.

Consider `CCOc1ccc(Nc2nc(Nc3ccc(OCC)cc3)nc(N3CCOCC3)n2)cc1`, for which the Potency was active: 2.33 µM.

With `COc1ccc(CCNC(=O)CCCn2c(=O)c3cccn3c3ccc(F)cc32)cc1OC`, the “activity change, negative = inhibition” value is inactive: 3.19%.

Take `COc1ccc(NC(=O)CC2C(=O)N(c3ccc(C)cc3)C(=O)N2C2CCCC2)cc1` (stereo not given): the “activity change, negative = inhibition” value was inactive: -8.56%.

Regarding `O=C(COc1ccc(Br)cc1)Nc1cccc2cccnc12`, the “activity change, negative = inhibition” value is inactive: -4.23%.

For `COC(=O)CN1C(=O)C(C)(C)c2cc(S(=O)(=O)Nc3ccc(C(C)C)cc3)ccc21`, the “activity change, negative = inhibition” value was inactive: -4.9%.

As to `CC(NC(=O)c1cc2ccccn2n1)c1ccccc1` (stereo not given), the “activity change, negative = inhibition” value was inactive: 3.24%.

For `COc1cccc(NC(=O)c2oc3ccccc3c2NC(=O)Cc2cccc(C)c2)c1`, the “activity change, negative = inhibition” value was inactive: 1.13%.

Turning to `COC(=O)c1ccc(Cl)cc1NC(=O)N1CCC(CN2CCC(C)CC2)CC1`, the “activity change, negative = inhibition” value is inactive: 1.37%.

For the molecule `CCc1cccc(NC(=O)c2coc(=O)c3ccccc23)c1`, the “activity change, negative = inhibition” value is inactive: -5.62%.

As for `Cc1cn2c(=O)cc(COC(=O)C(C)Oc3ccccc3)nc2s1` (stereo not given), the “activity change, negative = inhibition” value is inactive: 4.94%.

With `O=C(NCc1ccc(Cl)cc1)c1cc(-c2ccc(F)cc2)on1`, the “activity change, negative = inhibition” value was inactive: -1.24%.

Turning to `CCc1ccc(-n2nc(CO)c(C(=O)NCCCCc3ccccc3)n2)cc1`, the “activity change, negative = inhibition” value was inactive: -0.613%.

Consider `Cc1ccccc1OCC(=O)N(Cc1ccc(C(C)C)cc1)C1CCS(=O)(=O)C1` (stereo not given), for which the “activity change, negative = inhibition” value is inactive: 1.9%.

For the molecule `O=C(Nc1ccc(F)c(Cl)c1)C1CCCN1S(=O)(=O)c1ccc(F)cc1` (stereo not given), the “activity change, negative = inhibition” value was inactive: -1.49%.

As for `Cc1ccc(S(=O)(=O)c2nc(-c3ccccc3)oc2SCC(=O)NC2CCCCC2)cc1`, the “activity change, negative = inhibition” value is inactive: -13.3%.

Consider `CCOC(=O)C1=C(CS(=O)(=O)c2ccc(C)c(C)c2)NC(=O)NC1c1ccccc1OCC` (stereo not given), for which the “activity change, negative = inhibition” value was inactive: 1.59%.

As for `CCOc1ccc(NC(=O)Cn2c(=O)n(Cc3nc(-c4ccccc4)no3)c(=O)c3ccccc32)cc1`, the “activity change, negative = inhibition” value is inactive: -1.33%.

With `O=C(Cn1c(=O)ccc2cc(S(=O)(=O)N3CCCC3)ccc21)NCc1ccc(F)cc1`, the “activity change, negative = inhibition” value is inactive: -2.36%.

As for `COc1ccc(N(CC(=O)N2CCN(c3cccc(OC)c3)CC2)S(=O)(=O)c2c(C)noc2C)cc1`, the “activity change, negative = inhibition” value was inactive: -0.226%.

`COc1cc(OC)c(NC(=O)c2ccc3c(Cl)c4c(nc3c2)CCCC4)cc1Cl`: the “activity change, negative = inhibition” value was inactive: -9.49%.

For the molecule `COc1ccc(CCNC(=O)CSCc2nc(-c3ccc(OC)c(OC)c3)oc2C)cc1OC`, the “activity change, negative = inhibition” value was inactive: 3.04%.

On to `COCCNc1ccc(-c2nc(-c3cccc(C)c3)no2)cc1[N+](=O)[O-]`, for which the “activity change, negative = inhibition” value is inactive: -7.43%.

With `CN1C(=O)c2ccccc2Sc2ccc(NC(=O)COc3ccc(Cl)cc3)cc21`, the “activity change, negative = inhibition” value was inactive: -15%.

For `Cn1c(-n2cccc2)c(-c2c(-c3ccc(F)cc3)[nH]c3c2c(=O)[nH]c(=O)n3C)c(=O)[nH]c1=O`, the “activity change, negative = inhibition” value is inactive: 1.58%.

With `CC1CCCN(C(=O)Cn2c(=O)n(CC3CCC(C(=O)NC(C)C)CC3)c(=O)c3sccc32)C1` (stereo not given), the “activity change, negative = inhibition” value is inactive: -0.296%.

In the case of `COc1ccc(-n2ncc3c2ncn2nc(-c4ccc(Cl)cc4Cl)nc32)cc1`, the “activity change, negative = inhibition” value was inactive: 4.54%.

With `COc1cccc(OC)c1Cn1nnc2c(=O)[nH]c(C3CCN(C(=O)c4ccccc4)CC3)nc21`, the “activity change, negative = inhibition” value is inactive: 0.16%.

`Cc1cc(NC(=O)CN2C(=O)CSc3ccc(S(=O)(=O)N(C)C)cc32)ccc1Br`: the “activity change, negative = inhibition” value is inactive: -6.52%.

For the molecule `CSc1ccc(CCNC(=O)c2ccc3c(c2)nc2n3CCOC2)cc1`, the “activity change, negative = inhibition” value was inactive: 15.6%.

For `CCOC(=O)c1c(NC(=O)c2nc(SC)ncc2Cl)sc(C)c1C`, the “activity change, negative = inhibition” value is inactive: 6.01%.

As for `COc1cccc(-c2ccnc3[nH]n(-c4ccccc4)c(=O)c23)c1`, the “activity change, negative = inhibition” value is inactive: 2.48%.

With `Cc1ccc(-n2c(SCC(=O)N3CCC(C)CC3)nc3c([nH]c4ccccc43)c2=O)cc1`, the “activity change, negative = inhibition” value was inactive: 5.47%.

Turning to `Cc1ccc(NC(=O)c2ccc(F)c(S(=O)(=O)N3CCc4ccccc4C3)c2)cc1F`, the “activity change, negative = inhibition” value was inactive: 15.3%.

With `COc1ccccc1CNC(=O)c1cc2c(=O)n(Cc3cccs3)ccc2nc1C`, the “activity change, negative = inhibition” value is inactive: 1.2%.

On to `Cn1c(=O)n(CCCc2ccccc2)c(=O)c2c1nc1n2CCN1c1ccccc1`, for which the “activity change, negative = inhibition” value is inactive: 6.87%.

Regarding `CCOC(=O)c1scc(-c2ccc(C)cc2)c1S(=O)(=O)Nc1ccc(F)c(F)c1`, the “activity change, negative = inhibition” value is inactive: -9.75%.

As for `COc1ccc2c(c1)c(=O)c(C(=O)c1ccc(Cl)cc1)cn2CC(=O)Nc1ccc2c(c1)OCO2`, the “activity change, negative = inhibition” value is inactive: 3.4%.

As to `CCN(Cc1ccccc1)C(=O)CCS(=O)(=O)c1ccc2c(c1)oc(=O)n2C`, the “activity change, negative = inhibition” value was inactive: -5.1%.

In the case of `CCOC(=O)N1CCc2c(sc(NCc3sccc3C)c2C(=O)Nc2ccccc2OCC)C1`, the “activity change, negative = inhibition” value was inactive: 1.83%.

For the molecule `CCOC(=O)c1ccc(NC(=O)CN2C(=O)CC(c3ccc(C)c(C)c3)=Nc3ccccc32)cc1`, the “activity change, negative = inhibition” value is inactive: -14.6%.

For `Cc1c(Cl)cccc1NC(=O)NCCOCCn1c(=O)oc2ccccc21`, the “activity change, negative = inhibition” value is inactive: 1.15%.

Turning to `CCOc1ccc(CCNC(=O)c2ccc3c(c2)N(Cc2cccc(Cl)c2)C(=O)c2ccccc2S3(=O)=O)cc1OCC`, the “activity change, negative = inhibition” value was inactive: 0.0286%.

For the molecule `Cc1cc(-c2nc3ccccc3s2)ccc1NC(=O)c1cc(Cl)ccc1Cl`, the “activity change, negative = inhibition” value is inactive: 4.4%.

Regarding `COc1ccc2c(C)c(CCC(=O)NCc3ccc(OC)c(OC)c3)c(=O)oc2c1`, the “activity change, negative = inhibition” value was inactive: -3.11%.

With `Cc1sc(NC(=O)COc2ccc(C(C)(C)C)cc2)c(C(=O)OC(C)C)c1C`, the “activity change, negative = inhibition” value is inactive: -1.18%.

For the molecule `CCc1ccc(N2C(=O)CS(=O)(=O)C23C(=O)N(Cc2ccccc2F)c2ccccc23)cc1` (stereo not given), the “activity change, negative = inhibition” value is inactive: -5.67%.

For `COc1cc(-c2noc(-c3cc(C)[nH]n3)n2)cc(OC)c1OC`, the “activity change, negative = inhibition” value is inactive: 0.553%.

As for `COc1cccc(NC(=O)C2CCN(S(=O)(=O)c3cc(-c4noc(C)n4)ccc3C)CC2)c1`, the “activity change, negative = inhibition” value is inactive: -3.8%.

Turning to `CCN1CCN(C(=O)c2cnn(-c3cccc(C)c3)c2C2CCN(C(=O)OC(C)(C)C)CC2)CC1`, the “activity change, negative = inhibition” value is inactive: -2.61%.
